# In PubChem BioAssay (NCATS):
# The shares of active, inactive and inconclusive entries below differ from those in the screen. For some of these results: Potencies of inconclusive entries are left out as doubtful fits. The source made the active and inactive calls. Unless noted, the call rests on the fitted dose curve; in most records, active means well fitted curve in the direction sought with a large enough effect; inconclusive means small, poorly fitted or top-dose-only effect, or another doubt; inactive means no such curve, though single readings can be large; an effect the other way counts as inactive or inconclusive.
# Tests used:
# [1] = biological target: Rap guanine nucleotide exchange factor 3 (Homo sapiens) (UniProt O95398); test: Confirmatory qHTS for antagonist of cAMP-regulated guanine nucleotide exchange factor 3 (EPAC1) (AID 1645880); conditions: EPAC1 Rap1B-BODIPY-GDP exchange, fluorescence; activity, negative = inhibition: at 115 µM (top of the series); further: nearly all actives have a fitted effect of over 55% in size; further: potency means the concentration at half of the fitted maximal effect;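 on activity, negative = inhibition: plate controls were DMSO only for no effect and full effect of the ATA control for full effect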
# Chain of UniProt O95398 (O95398 whole entry, looked up): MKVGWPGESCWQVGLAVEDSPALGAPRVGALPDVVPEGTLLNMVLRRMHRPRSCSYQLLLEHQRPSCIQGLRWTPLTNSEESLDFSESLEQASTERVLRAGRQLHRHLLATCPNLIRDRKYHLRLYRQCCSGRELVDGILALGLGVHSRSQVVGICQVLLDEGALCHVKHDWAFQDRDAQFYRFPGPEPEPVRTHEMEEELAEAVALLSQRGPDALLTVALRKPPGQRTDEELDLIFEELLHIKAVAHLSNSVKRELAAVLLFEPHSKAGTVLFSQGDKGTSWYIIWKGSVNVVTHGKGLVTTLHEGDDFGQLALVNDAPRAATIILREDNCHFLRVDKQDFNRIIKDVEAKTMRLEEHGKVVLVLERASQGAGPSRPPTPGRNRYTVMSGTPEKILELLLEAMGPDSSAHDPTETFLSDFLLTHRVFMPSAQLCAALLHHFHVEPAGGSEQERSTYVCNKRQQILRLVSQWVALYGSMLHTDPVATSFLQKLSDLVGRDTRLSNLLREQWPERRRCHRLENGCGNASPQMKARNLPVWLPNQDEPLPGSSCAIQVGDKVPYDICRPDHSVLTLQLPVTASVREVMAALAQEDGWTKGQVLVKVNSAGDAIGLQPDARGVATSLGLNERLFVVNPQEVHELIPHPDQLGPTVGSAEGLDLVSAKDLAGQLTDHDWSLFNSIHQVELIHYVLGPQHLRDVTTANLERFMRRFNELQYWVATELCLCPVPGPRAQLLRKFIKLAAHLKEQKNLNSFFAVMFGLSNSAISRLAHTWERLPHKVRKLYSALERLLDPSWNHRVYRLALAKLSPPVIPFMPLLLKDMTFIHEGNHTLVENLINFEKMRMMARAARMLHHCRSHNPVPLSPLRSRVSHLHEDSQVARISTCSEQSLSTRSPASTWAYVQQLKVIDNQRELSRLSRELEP
# Procedure, shortened: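 Released BODIPY-GDP fluoresces less than Rap1-bound BODIPY-GDP; the signal is followed at 480/540 nm at 5-min intervals over 30 min, after 5 min at room temperature. Reactions contain 100 nM EPAC1, 250 nM RAP1B-BODIPY-GDP and 50 uM GDP; results are normalized to ATA and DMSO.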
# [2] = biological target: Rap guanine nucleotide exchange factor 3 (Homo sapiens) (UniProt O95398); test: Confirmatory qHTS for agonist of cAMP-regulated guanine nucleotide exchange factor 3 (EPAC1) (AID 1645881); conditions: EPAC1 Rap1B BODIPY-GDP exchange fluorescence; activation: at 154 µM (top of the series), 100% = cAMP control response; further: nearly all actives have a fitted effect of over 75% in size; further: potency means the concentration at half of the fitted maximal effect;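 on activation: EPAC1 catalysed release of BODIPY-GDP from Rap1B seen as fluorescence loss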
# [3] = biological target: Rap guanine nucleotide exchange factor 4 (Homo sapiens) (UniProt Q8WZA2); test: Confirmatory qHTS for agonist of cAMP-regulated guanine nucleotide exchange factor 4 (EPAC2) (AID 1645884); conditions: EPAC2 GEF activity, Rap1B-BODIPY-GDP fluorescence; activation: at 154 µM (top of the series), percent relative to cAMP agonist control;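 further: nucleotide exchange releases bodipy-GDP from Rap1 and this lowers its fluorescence; nearly all actives have a fitted effect of over 65% in size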; further: potency means the concentration at half of the fitted maximal effect; on activation: on the % scale 0 is the no-effect control and ±100 the full control effect
# Chain of UniProt Q8WZA2 (Q8WZA2 whole entry, looked up): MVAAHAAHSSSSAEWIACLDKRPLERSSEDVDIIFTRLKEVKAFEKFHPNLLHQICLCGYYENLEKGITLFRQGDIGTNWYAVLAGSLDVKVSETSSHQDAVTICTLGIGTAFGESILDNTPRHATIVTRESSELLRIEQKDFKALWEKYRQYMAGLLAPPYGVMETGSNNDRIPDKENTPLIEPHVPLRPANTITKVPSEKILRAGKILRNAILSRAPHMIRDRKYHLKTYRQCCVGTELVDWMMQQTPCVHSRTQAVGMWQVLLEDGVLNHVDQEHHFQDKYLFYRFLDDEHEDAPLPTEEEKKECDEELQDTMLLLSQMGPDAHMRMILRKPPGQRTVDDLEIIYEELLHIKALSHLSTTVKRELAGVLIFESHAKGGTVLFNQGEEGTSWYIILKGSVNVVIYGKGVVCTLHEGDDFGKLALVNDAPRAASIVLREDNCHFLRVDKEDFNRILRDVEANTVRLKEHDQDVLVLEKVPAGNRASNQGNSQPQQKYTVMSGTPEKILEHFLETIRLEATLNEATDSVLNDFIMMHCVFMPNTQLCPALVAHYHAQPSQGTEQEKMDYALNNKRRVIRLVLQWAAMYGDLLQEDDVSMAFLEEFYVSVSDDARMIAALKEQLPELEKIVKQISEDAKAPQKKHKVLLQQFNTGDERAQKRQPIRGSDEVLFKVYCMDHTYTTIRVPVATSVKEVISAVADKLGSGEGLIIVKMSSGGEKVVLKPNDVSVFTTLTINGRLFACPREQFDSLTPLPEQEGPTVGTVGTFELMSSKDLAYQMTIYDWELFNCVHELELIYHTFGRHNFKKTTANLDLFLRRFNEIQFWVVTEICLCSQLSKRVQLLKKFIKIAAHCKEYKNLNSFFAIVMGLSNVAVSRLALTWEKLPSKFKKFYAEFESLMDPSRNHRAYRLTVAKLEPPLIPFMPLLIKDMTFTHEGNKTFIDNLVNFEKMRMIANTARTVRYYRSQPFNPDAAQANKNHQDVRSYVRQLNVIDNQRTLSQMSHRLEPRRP
# [4] = biological target: Rap guanine nucleotide exchange factor 3 (Homo sapiens) (UniProt O95398); test: Counterscreen qHTS for agonist of cAMP-regulated guanine nucleotide exchange factor 3 (EPAC1) (AID 1645889); conditions: EPAC1 Rap1B-BODIPY-GDP exchange, fluorescence; activation: at 154 µM (top of the series) unless noted; further: nearly all actives have a fitted effect of over 40% in size; further: potency means the concentration at half of the fitted maximal effect; on activation: % of control where 0% means no effect
# Procedure, shortened: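 Rap1B-BODIPY-GDP 250 nM + GDP 50 uM; cpds 7-pt, final 9.74 nM–152 uM (activator mode) or from 7.32 nM upwards (inhibitor mode); RT; FI 480/540 nm at 5 and 30 min, then ± cAMP, reread.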
# [5] = biological target: DNA polymerase eta (Homo sapiens) (UniProt Q9Y253); test: qHTS for Inhibitors of Polymerase Eta: Confirmatory Assay for Cherry-picked Compounds (AID 720502); conditions: Pol eta primer extension, TAMRA/BHQ fluorescence, 10 min; further: potency means the concentration at half of the fitted maximal effect
# Chain of UniProt Q9Y253 (Q9Y253 whole entry, looked up): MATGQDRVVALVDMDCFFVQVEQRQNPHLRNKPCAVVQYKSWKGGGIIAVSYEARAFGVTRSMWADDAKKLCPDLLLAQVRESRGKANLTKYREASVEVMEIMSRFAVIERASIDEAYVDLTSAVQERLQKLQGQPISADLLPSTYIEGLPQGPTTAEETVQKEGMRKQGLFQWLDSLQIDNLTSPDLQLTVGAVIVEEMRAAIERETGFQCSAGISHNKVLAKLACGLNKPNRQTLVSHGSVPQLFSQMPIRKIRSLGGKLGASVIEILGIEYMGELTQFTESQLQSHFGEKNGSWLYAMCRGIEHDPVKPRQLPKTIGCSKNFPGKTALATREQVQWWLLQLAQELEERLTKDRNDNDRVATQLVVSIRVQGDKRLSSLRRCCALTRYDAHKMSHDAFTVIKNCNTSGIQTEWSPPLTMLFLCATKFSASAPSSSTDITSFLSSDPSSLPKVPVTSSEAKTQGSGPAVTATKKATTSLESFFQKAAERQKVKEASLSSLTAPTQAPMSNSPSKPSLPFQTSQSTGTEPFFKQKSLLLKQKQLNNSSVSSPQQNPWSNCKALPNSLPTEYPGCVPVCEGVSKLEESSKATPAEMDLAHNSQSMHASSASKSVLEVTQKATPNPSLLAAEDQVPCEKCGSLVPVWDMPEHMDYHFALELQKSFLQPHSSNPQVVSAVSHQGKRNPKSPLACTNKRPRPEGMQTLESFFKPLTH
# Procedure, shortened: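 Plates with 10 nM enzyme and compound stood 15 min at room temperature before substrate addition (50 nM final). Displacement of the TAMRA reporter from the BHQ-2 template was tracked for 10 min.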
# [6] = biological target: Rap guanine nucleotide exchange factor 4 (Homo sapiens) (UniProt Q8WZA2); test: Confirmatory qHTS for antagonist of cAMP-regulated guanine nucleotide exchange factor 4 (EPAC2) (AID 1645885); conditions: activity change, negative = inhibition: at 12.7 µM (top of the series) unless noted; further: nearly all actives have a fitted effect of over 25% in size; further: potency means the concentration at half of the fitted maximal effect; on activity change, negative = inhibition: on the % scale 0 is the no-effect control and ±100 the full control effect
# [7] = biological target: Cytochrome P450 2D6 (Homo sapiens) (UniProt P10635); test: qHTS Assay for Inhibitors and Substrates of Cytochrome P450 2D6 (AID 891);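 further: luciferin methyl ether substrate demethylated by CYP2D6 with NADPH regeneration; potency means the concentration at half of the fitted maximal effect; nearly all actives have a fitted effect of over 60% in size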
# Chain of UniProt P10635 (P10635 whole entry, looked up): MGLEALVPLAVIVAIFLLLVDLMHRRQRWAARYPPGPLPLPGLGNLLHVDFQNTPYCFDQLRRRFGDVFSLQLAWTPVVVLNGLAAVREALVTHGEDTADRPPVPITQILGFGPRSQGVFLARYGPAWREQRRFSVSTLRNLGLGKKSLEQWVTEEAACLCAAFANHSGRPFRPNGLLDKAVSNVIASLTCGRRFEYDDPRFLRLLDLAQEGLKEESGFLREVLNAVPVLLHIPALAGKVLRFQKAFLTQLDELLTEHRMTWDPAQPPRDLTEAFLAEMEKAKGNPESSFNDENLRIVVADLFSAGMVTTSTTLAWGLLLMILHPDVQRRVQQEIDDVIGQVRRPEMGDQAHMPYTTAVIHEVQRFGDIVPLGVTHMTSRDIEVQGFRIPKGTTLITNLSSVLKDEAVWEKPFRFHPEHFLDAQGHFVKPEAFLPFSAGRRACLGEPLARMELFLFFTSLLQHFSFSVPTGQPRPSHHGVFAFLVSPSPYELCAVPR
# Procedure, shortened: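 Luminescent read-out of luciferin formed by 5 nM human CYP2D6 demethylating 30 uM Luciferin-ME EGE (Km level) over 60 min at room temperature after NADPH regeneration addition. Data normalized to full inhibition by 1.43 uM quinidine.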
# [8] = biological target: Cytochrome P450 2C19 (Homo sapiens) (UniProt P33261); test: qHTS Assay for Inhibitors and Substrates of Cytochrome P450 2C19 (AID 899); further: potency means the concentration at half of the fitted maximal effect; nearly all actives have a fitted effect of over 60% in size
# Chain of UniProt P33261 (P33261 whole entry, looked up): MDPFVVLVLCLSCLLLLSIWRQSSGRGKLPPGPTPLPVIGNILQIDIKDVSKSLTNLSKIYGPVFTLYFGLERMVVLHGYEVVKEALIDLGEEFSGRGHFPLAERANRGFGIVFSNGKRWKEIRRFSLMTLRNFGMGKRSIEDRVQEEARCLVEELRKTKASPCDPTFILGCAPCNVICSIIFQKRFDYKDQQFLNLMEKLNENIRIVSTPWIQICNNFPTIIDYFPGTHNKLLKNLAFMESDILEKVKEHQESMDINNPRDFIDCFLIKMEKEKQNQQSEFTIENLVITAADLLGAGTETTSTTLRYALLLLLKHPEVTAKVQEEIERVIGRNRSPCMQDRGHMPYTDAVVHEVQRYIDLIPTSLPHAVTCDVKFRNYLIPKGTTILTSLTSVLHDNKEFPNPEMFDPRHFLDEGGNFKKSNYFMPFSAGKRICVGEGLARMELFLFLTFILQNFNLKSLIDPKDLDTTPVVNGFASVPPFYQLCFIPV
# Procedure, shortened: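 Luminescence readout of luciferin formed from 10uM Luciferin-H EGE (KM level) by 5 nM CYP2C19 in 50mM KPO4. 60 min NADPH-driven reaction at 37C after 10 min compound preincubation; data scaled to 57uM ketoconazole inhibition.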
# [9] = qHTS Assay for Identification of Small Molecule Agonists for Hypoxia Response Element Signaling Pathway (AID 914; active means well fitted activation curve with a large enough effect in the signal ratio, with a control signal flat, not every such curve was filed as active; inconclusive means small, poorly fitted or top-dose-only effect, or effect the other way, or a change in a side signal; the % refers to the signal ratio; further: top concentration of the series differs between compounds; % of control where 0% means no effect); conditions: ME-180 (cervical carcinoma) HRE-bla reporter, beta-lactamase ratio, CoCl2, 17 h; activation: active compounds read high
# Procedure, shortened: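 Reporter activity (beta-lactamase, CCF4 460nm/530nm ratio) in HRE-bla ME-180 cells is recorded after 17 h compound exposure with EC50 CoCl2 at 37 degrees Celsius. AC50 values come from titration data.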
# [10] = qHTS for Inhibitors of WRN Helicase: Thiazole Orange DNA Binding Counterscreen (AID 720499);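 further: drop in dye fluorescence marks compound binding to DNA; potency means the concentration at half of the fitted maximal effect; nearly all actives have a fitted effect of over 60% in size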
# Procedure, shortened: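 Counterscreen to remove nonspecific DNA binders from WRN helicase hits. Compounds were incubated 15 min at room temperature with 50 nM DNA and 100 nM ThO, then fluorescence was recorded (480 nm excitation, 530 nm emission).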
# [11] = biological target: Bifunctional 3'-5' exonuclease/ATP-dependent helicase WRN (Homo sapiens) (UniProt Q14191); test: qHTS for Inhibitors of WRN Helicase: Confirmatory Assay for Cherry-picked Compounds. (AID 720497); further: nearly all actives have a fitted effect of over 65% in size
# Procedure, shortened: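 WRN (20 nM) was preincubated 15 min at RT with compound, then started with 100 nM forked duplex oligonucleotide and 2 mM ATP. Unwinding was read kinetically by red fluorescence (ex 525/em 598 nm), normalized to enzyme-free and uninhibited controls.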
# [12] = biological target: RecQ-like DNA helicase BLM (Homo sapiens) (UniProt P54132); test: qHTS for Inhibitors of WRN Helicase: BLM Helicase Counterscreen for WRN Inhibitors (AID 720503); further: potency means the concentration at half of the fitted maximal effect; nearly all actives have a fitted effect of over 60% in size
# Chain of UniProt P54132 (P54132 whole entry, looked up): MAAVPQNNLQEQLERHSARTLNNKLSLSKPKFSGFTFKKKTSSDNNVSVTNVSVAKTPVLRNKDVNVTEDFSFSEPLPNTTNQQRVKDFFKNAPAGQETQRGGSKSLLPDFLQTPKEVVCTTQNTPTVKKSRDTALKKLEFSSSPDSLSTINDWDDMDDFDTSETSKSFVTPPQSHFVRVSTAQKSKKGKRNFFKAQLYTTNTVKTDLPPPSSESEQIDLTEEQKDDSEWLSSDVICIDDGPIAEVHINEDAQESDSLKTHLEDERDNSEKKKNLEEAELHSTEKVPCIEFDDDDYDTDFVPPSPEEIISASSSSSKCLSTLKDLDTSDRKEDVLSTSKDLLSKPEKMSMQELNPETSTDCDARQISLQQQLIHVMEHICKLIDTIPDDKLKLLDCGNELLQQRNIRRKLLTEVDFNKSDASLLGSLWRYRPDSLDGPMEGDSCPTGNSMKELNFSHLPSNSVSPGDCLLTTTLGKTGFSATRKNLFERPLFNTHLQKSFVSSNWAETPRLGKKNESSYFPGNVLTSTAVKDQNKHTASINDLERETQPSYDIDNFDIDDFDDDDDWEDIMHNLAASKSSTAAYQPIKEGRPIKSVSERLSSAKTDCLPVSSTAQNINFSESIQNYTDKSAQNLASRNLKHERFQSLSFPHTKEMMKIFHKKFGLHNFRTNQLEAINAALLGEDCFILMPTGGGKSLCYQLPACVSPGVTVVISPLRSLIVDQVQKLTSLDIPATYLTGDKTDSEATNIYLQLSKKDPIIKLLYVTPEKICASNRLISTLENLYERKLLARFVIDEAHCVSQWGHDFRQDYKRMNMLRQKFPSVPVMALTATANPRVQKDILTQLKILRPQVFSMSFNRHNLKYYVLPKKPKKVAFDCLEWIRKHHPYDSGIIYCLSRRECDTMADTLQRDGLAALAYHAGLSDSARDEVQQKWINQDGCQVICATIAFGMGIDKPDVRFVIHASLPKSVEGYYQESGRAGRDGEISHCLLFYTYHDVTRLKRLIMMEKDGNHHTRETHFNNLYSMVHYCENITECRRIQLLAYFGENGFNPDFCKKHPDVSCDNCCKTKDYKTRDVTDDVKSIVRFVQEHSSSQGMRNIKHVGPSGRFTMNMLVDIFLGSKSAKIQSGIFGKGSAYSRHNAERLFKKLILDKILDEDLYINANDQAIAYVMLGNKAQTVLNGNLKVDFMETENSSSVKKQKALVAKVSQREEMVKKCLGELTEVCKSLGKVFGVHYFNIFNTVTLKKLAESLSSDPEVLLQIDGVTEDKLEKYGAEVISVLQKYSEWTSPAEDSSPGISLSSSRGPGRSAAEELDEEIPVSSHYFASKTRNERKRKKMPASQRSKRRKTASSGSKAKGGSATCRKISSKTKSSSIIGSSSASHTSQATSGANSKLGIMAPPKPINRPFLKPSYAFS
# Procedure, shortened: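 Steps: compounds added to 1 nM BLM in pH 8.0 Tris buffer with 2 mM MgCl2; 15 min room-temperature incubation; substrates added (100 nM DNA, 2 mM ATP final); discontinuous kinetic fluorescence measurement, reads spaced 15 min.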
# Tags describe the fitted curve by direction and shape.
structure (smiles),measurement,setting,value
COc1ccc2c(c1)Cc1sc(NC(=O)c3ccccc3Br)nc1-2,Potency,[1],"inconclusive [inhibitor, single point]"
same,Potency,[2],inactive
same,Potency,[3],"inconclusive [activator, single point]"
same,Potency,[4],"inconclusive [activator, full curve]"
COc1cccc(CNc2cccc3cccnc23)c1O,Potency,[1],"inconclusive [inhibitor, partial curve, poor fit]"
same,Potency,[2],"inconclusive [activator, partial curve, poor fit]"
same,Potency,[3],"inconclusive [activator, partial curve, poor fit]"
same,Potency,[4],"inconclusive [activator, partial curve, poor fit]"
Cc1cc(C)cc(OCC(=O)OCC(=O)NC2CCCCCCC2)c1,Potency,[1],"inconclusive [inhibitor, partial curve, poor fit]"
same,Potency,[2],inactive
same,Potency,[3],inactive
same,activation,[4],inconclusive: 45.5% [activator]
O=c1c(/C=C(\O)c2ccccc2)nc2ccccc2n1-c1ccccc1,Potency,[1],inactive
same,Potency,[2],"inconclusive [activator, partial curve, poor fit]"
same,Potency,[3],"inconclusive [activator, single point]"
same,Potency,[4],"inconclusive [activator, single point]"
Cc1cccc(NCc2cccc3ccccc23)n1,Potency,[1],inactive
same,Potency,[2],"inconclusive [activator, partial curve, poor fit]"
same,activation,[3],"inactive: 4.47% [at 17.1 µM, percent relative to cAMP agonist control]"
same,Potency,[4],"inconclusive [activator, partial curve, poor fit]"
COCCn1c(-c2ccc(OC)cc2)c(-c2ccc(OC)cc2)oc1=O,Potency,[1],"inconclusive [inhibitor, partial curve, poor fit]"
same,Potency,[2],"inconclusive [activator, partial curve, poor fit]"
same,Potency,[3],"inconclusive [activator, partial curve, poor fit]"
same,Potency,[4],"inconclusive [activator, partial curve, poor fit]"
Cc1cccc(C)c1NC(=O)CN1C(=O)S/C(=C\c2cccn2-c2cccc(C(=O)O)c2)C1=O,Potency,[5],active: 75.7 µM
same,Potency,[1],"inconclusive [inhibitor, partial curve]"
same,Potency,[2],"inconclusive [activator, partial curve, poor fit]"
same,Potency,[3],active: 100 µM
same,Potency,[6],"inconclusive [inhibitor, full curve, poor fit]"
same,Potency,[4],inactive
N=C(N)c1ccc(N=Nc2c(O)ccc3c2[nH]c2ccccc23)cc1,Potency,[7],"inconclusive [inhibitor, single point]"
same,Potency,[8],active: 1.26 µM
same,activation,[9],inconclusive: -6.6%
same,Potency,[10],active: 24.1 µM
same,Potency,[1],active: 56.2 µM
same,Potency,[2],"inconclusive [activator, partial curve, poor fit]"
same,Potency,[3],"inconclusive [activator, partial curve, poor fit]"
same,Potency,[6],inactive
same,activation,[4],inactive: 33.2% [at 30.8 µM]
O=C(CC1Sc2ccccc2NC1=O)OCc1cc(=O)oc2cc(O)ccc12 (stereo not given),Potency,[1],"inconclusive [inhibitor, full curve]"
same,Potency,[2],"inconclusive [activator, single point]"
same,Potency,[3],"inconclusive [activator, partial curve, poor fit]"
same,Potency,[4],inactive
Cc1nn(C)c(C)c1N1C(=O)c2cccc3c(N)ccc(c23)C1=O,Potency,[1],inactive
same,Potency,[2],"inconclusive [activator, partial curve, poor fit]"
same,Potency,[3],active: 5.01 µM
same,Potency,[4],active: 11.2 µM
O=C1C=C(c2c(O)ccc3ccccc23)c2ccccc2C1=O,Potency,[11],inactive
same,Potency,[10],"inconclusive [inhibitor, single point]"
same,Potency,[12],"inconclusive [inhibitor, single point]"
same,Potency,[1],active: 67.5 µM
same,Potency,[2],"inconclusive [activator, partial curve, poor fit]"
same,Potency,[3],"inconclusive [activator, partial curve]"
same,Potency,[6],active: 47.8 µM
same,Potency,[4],active: 35.5 µM
